# Reference: the supplement of paper PMC3334620
# Over roughly 33,000 sequences, “E-score (-0.5 to 0.5)” has its median near -0.054; the highest 2% begin near 0.39. The list shows a part of the results.
# Molecular target: Ylr278c (UniProt Q05854)
# Test: PBM E-score (8-mer binding enrichment) (E-score (-0.5 to 0.5)); higher = stronger / more preferred TF binding; most listed sequences are background and not binding sites
# Conditions: protein concentration: 200 nM; construct: GST-DNA-binding domain
# Method in brief: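 Each ungapped eight-base word and its reverse complement, pooled, received an E-score from the Universal PBM Analysis Suite. Underlying scans, normalised with masliner, recorded fluorescent anti-GST bound to GST-tagged yeast transcription factors. These were applied at about 100-200 nM to universal all-10-mer Agilent arrays double-stranded by primer extension.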
row,Sequence,PBM E-score
1,CACTCCAA,0.031
2,CAAAAGTC,0.0214
3,ATAGCTCC,0.119
4,GCTATACA,-0.191
5,ACCATAGT,-0.04
6,GTGTCTTA,-0.188
7,CGCCATCC,0.0379
8,GTAAACAA,-0.0542
9,ATACGCGG,0.202
10,AGGGACTG,-0.0934
11,ACGATTAG,-0.0977
12,GTGTTTAA,-0.0159
13,GCAAAAGA,-0.148
14,ATAGCCCG,0.171
15,CTAACGAA,-0.0464
16,GGGTGAAC,-0.0508
17,CTGTTCGA,-0.278
18,AAGTGATT,-0.0725
19,ATTCCTCC,0.273
20,CTGTTGCC,-0.111
21,GACTTTTA,-0.0377
22,ATAGACCG,0.0141
23,CTTCGCTC,0.0673
24,CTGCCGTC,0.0804
25,GAAATCCA,0.129

row,Sequence,PBM E-score
1,GGTTAATA,0.103
2,CAGCTGGG,-0.129
3,AGACTACC,0.0713
4,ATCAAACC,0.0293
5,GCATAGCC,-0.00146
6,AACGAGTA,-0.0837
7,CGTGGATA,-0.11
8,ATCCAGTC,-0.00656
9,AAGCGGTC,0.132
10,ACGTTCAG,-0.293
11,GCGGTACA,0.0965
12,AGCACACT,-0.124
13,ATCAGATC,-0.0678
14,CAATTGTA,-0.15
15,ACAACCCC,0.166
16,GATGGTAC,-0.0327
17,ATAACGGA,0.31
18,AGGCTTAT,-0.188
19,ATAGCCTA,-0.217
20,CGTGCAAC,-0.0111
21,GTCTTAGA,-0.201
22,GCTGCTAA,-0.0103
23,AATACAGG,0.00619
24,AACAGATC,-0.0757
25,GTTGGCTA,-0.0869

row,Sequence,PBM E-score
1,ACGCGCCC,0.19
2,GGGTTACC,-0.0256
3,CCATTATC,-0.167
4,CCAGTCCG,0.322
5,TAATCAGA,0.0117
6,CATTTCAC,0.0992
7,CTCCGCAC,0.41
8,GCCCTCAC,-0.226
9,CATCTGCC,0.0606
10,CCTGGGGC,-0.0435
11,AACTGCTC,0.00565
12,CGCTCTCC,0.167
13,ACATGAAT,-0.185
14,CCCCTCCA,-0.136
15,AGATTCCC,0.21
16,ACGATGGG,-0.0868
17,CTATAACA,-0.275
18,ATTGCAAG,-0.216
19,AGATCACA,-0.0741
20,AAGGCTAT,-0.189
21,AGGCAGAA,-0.0575
22,CCCGAAAG,0.238
23,CATGTGGC,-0.00305
24,AGAGATCC,0.0436
25,CTAGCCGC,0.132

row,Sequence,PBM E-score
1,CCACTTAC,0.0731
2,GGCGCGCC,0.294
3,ACTACAAT,0.0161
4,ATTTCCCA,-0.169
5,ATAACACG,0.0169
6,AGGCATCC,-0.12
7,GGAAGTTA,0.204
8,AATCAAAC,-0.0046
9,GGTTCATA,-0.121
10,CCCCCCGG,0.22
11,CGATCTAC,0.0184
12,GTTGCTAA,-0.00866
13,CTGTGAAG,-0.243
14,CCCTGTGA,-0.334
15,CCTGTTAC,-0.0951
16,CGAACAGC,-0.0272
17,ACCTGATA,-0.0535
18,CCCGTTCA,-0.0458
19,CCAACAGG,-0.336
20,CTATATAC,0.0926
21,AAAGGGGG,-0.19
22,TTGACAAA,0.00989
23,ACAATCGT,-0.294
24,GGTACTAA,0.137
25,GTGGCTAA,-0.177

row,Sequence,PBM E-score
1,ACGATCCC,0.0165
2,CCAAGCGG,0.0563
3,AGAGCAAG,-0.00148
4,ACACGAGT,-0.126
5,CGTCCATA,-0.0281
6,GCGGTATA,0.145
7,GGCCACCA,-0.0754
8,CGGAATTA,0.466
9,CCTTAGCC,-0.0253
10,TCTAAAGA,-0.115
11,AACCTTAT,-0.17
12,ACTCCGGA,0.494
13,CCAGTCAA,-0.231
14,AACGGATA,0.292
15,ACGGGCAC,-0.151
16,CGCGAGGC,0.1
17,AATAGATC,0.0283
18,ATGCGAAT,0.038
19,AATAATGA,-0.0499
20,GAAAATGA,0.126
21,AGACCAAG,-0.0136
22,GAATGCAA,0.00843
23,ACCGGTAC,0.19
24,CGATAAGC,0.0987
25,TGGAGGAA,-0.131

row,Sequence,PBM E-score
1,AGATAGGG,-0.14
2,CTGCCAAA,-0.0486
3,CGATTCTA,-0.131
4,AAAAGTCC,0.371
5,AGTCCACT,-0.294
6,AAGAAGGT,-0.0973
7,CTACCGCC,0.147
8,AAGTCATC,-0.195
9,AGAAGGCC,0.0969
10,AAGAACGG,0.0623
11,ATCTGATC,0.00201
12,GGTGAATA,0.0908
13,AAACAGAC,-0.0477
14,ACGGACTA,0.315
15,CCGTCGCC,0.288
16,CGCTTAAG,-0.137
17,TAACCGAA,0.0695
18,ATCAAAAT,-0.184
19,GGTAGGAA,-0.0873
20,AACGTTCA,-0.299
21,AGGGCATC,-0.27
22,CATGCGTA,-0.0634
23,CCAAGAAA,-0.0453
24,TGCACGCA,-0.143
25,AATACTAA,-0.0403

row,Sequence,PBM E-score
1,GGAACCAC,0.0576
2,CATCCAGG,-0.187
3,ATATACTC,-0.0435
4,CACTATAA,-0.376
5,AGCGTATA,-0.0437
6,AAGCCGGC,0.372
7,CCAAGGTC,-0.0268
8,GCGGTCTA,0.0022
9,AGCAATTG,-0.0905
10,ACGCAGCT,-0.23
11,GTGACCTA,-0.132
12,AAATCCGA,0.449
13,CGTGGTAG,-0.0716
14,CGCTGATC,0.243
15,CCTTGTAC,-0.105
16,CCCCATAC,-0.00506
17,AGCTCAGG,-0.0847
18,AGTTTTGG,-0.03
19,CGGTGGAC,0.158
20,GACATGGA,-0.0811
21,CCTGGAGA,-0.285
22,GATGTGAC,-0.0139
23,GATCGATC,-0.0493
24,CACTCGAG,-0.22
25,CCTCCTCC,0.16

row,Sequence,PBM E-score
1,CAACTACA,-0.0431
2,CCCTGGGA,-0.0399
3,GCCAGCCA,-0.105
4,ATGTACCA,0.00795
5,AGAAACCC,0.173
6,TAATGTAA,-0.0653
7,AGCAGCCA,-0.259
8,GACTTGAA,0.0382
9,CCCTGAAG,-0.257
10,GCTTACAA,-0.275
11,AGCCTCGA,-0.214
12,AAAGGGAT,-0.205
13,AGAAAGCC,-0.0315
14,CTCTCCTC,-0.236
15,ACCCGCGG,0.363
16,CGTTCTAC,0.00488
17,CAAGAAAA,-0.0534
18,TACCCGCA,0.157
19,CAATGGAG,-0.129
20,AGTCACCG,0.101
21,CTCGGGCA,0.162
22,CTTAGTGA,-0.0946
23,AGACCATA,-0.0489
24,CGAGCCGA,0.0788
25,ATGACTCC,0.184

row,Sequence,PBM E-score
1,AAGGGCCG,0.0324
2,GGTACCCA,-0.151
3,AACATGCC,0.133
4,CCGCTACA,0.198
5,ATTACCAA,-0.0554
6,GCAAGTCC,0.129
7,AATCGATG,-0.17
8,AAAGGTAC,-0.0371
9,TCCCCCGA,0.263
10,CATGTCAC,-0.0432
11,ATACTGAG,-0.0928
12,ATGCGAAG,-0.0858
13,CCAAAATA,0.119
14,AGGTTGCA,-0.143
15,ATCCGAGG,0.274
16,GATGGTTA,-0.0541
17,CAGACAAG,-0.106
18,AAATCGAA,-0.194
19,CAGGCCAG,-0.132
20,CCAGGAGG,-0.216
21,CAACAGAA,-0.186
22,ATTAGAAG,-0.0313
23,GGGGGAAA,0.198
24,CTAAATGC,0.0793
25,AAAGGGAA,-0.104

row,Sequence,PBM E-score
1,AACGAATG,-0.0195
2,CAGTATAC,-0.155
3,CAAATACG,-0.128
4,CGGGGTTC,0.401
5,CAAAGAGC,-0.0821
6,GGAGCCCC,0.21
7,CTTTTCAA,-0.221
8,ATTCAGCA,-0.186
9,CGCCGAGC,0.314
10,CCTTGTGC,-0.304
11,TGCCCCAA,-0.016
12,CGTAGACA,-0.189
13,GAGGTTAC,0.0243
14,GAAAATAC,0.148
15,AAATCATG,-0.17
16,CCGTAAAG,0.102
17,GGCGCCCA,0.0663
18,CTGGTGGA,-0.0947
19,CCAACGGA,0.317
20,AACGATCT,-0.0642
21,ATACAGGA,0.104
22,GCTACTCA,-0.134
23,AGCGCACT,-0.0926
24,ACCATCGG,0.184
25,ACCGCGTA,0.158

row,Sequence,PBM E-score
1,CTCAACTC,0.0467
2,AGAAACTC,0.152
3,CCGGTCAC,0.261
4,AGGGACCA,-0.291
5,GCTCCGCC,0.382
6,AGTCTACC,-0.124
7,ACTGTTAG,-0.39
8,ACGTTCGG,0.222
9,GCACGAGC,-0.104
10,GCATAGAC,-0.0629
11,AGAAACAT,-0.0446
12,GACACCCC,-0.00873
13,AGGACAGC,-0.162
14,CACTAACC,-0.108
15,ACAAGTGA,-0.139
16,CGAAGTGA,-0.148
17,GCGTACTA,-0.15
18,ATGAGCAA,-0.0881
19,AAGACGAT,-0.136
20,AGCGCGCC,0.172
21,CAAATCAC,-0.147
22,AGATGCCT,-0.357
23,AGTAAACG,-0.031
24,CGATGAAA,0.0464
25,CATATGGG,0.00815

row,Sequence,PBM E-score
1,GTCGCACA,-0.121
2,GCGCCAAA,0.0971
3,CCTCGGAC,0.374
4,ACTCGACG,0.0799
5,GCCTCCGC,0.361
6,CCGATTAA,0.333
7,GCCGTCCC,0.198
8,AATACTTC,0.0297
9,CGTAACCC,0.0779
10,ACATCGTC,-0.209
11,CATTGTCC,0.314
12,CGGTGCAG,0.0301
13,ACCTCTAC,-0.147
14,GGACCCCA,-0.0193
15,CAACTTTC,0.136
16,GAGAGGTA,-0.177
17,CTCTTTGC,-0.105
18,AACAGTTC,-0.0219
19,GTTAACAA,0.105
20,AAGACGGA,0.258
21,TATCTGAA,-0.0492
22,CTCGACCC,-0.101
23,AATTTCGA,-0.116
24,ATAGGAGC,-0.14
25,GAAGAGAA,-0.0362

row,Sequence,PBM E-score
1,GTAGATTA,0.172
2,CTAGACAC,-0.0911
3,ATAGGCTA,-0.215
4,CCTAATTC,-0.0306
5,TGCAGGAA,0.014
6,AAAAACCG,0.224
7,AAGCACTA,-0.26
8,CACTAGGA,-0.125
9,TATTGGCA,-0.126
10,GCTCCTTA,0.039
11,TCGCCCCA,-0.103
12,AACTACGA,-0.123
13,CCACTACC,-0.0808
14,GGAGCGCC,0.14
15,CCTCCGAC,0.405
16,CTAACACA,-0.0287
17,CCCGAGCC,0.248
18,ATGTTAGA,-0.332
19,CTATTATA,-0.105
20,AACAGGAA,-0.227
21,CATCTGTC,0.0369
22,CCAGTCCA,-0.17
23,CCCAAATC,-0.0603
24,CCAGGATC,-0.0423
25,ATCACTCG,-0.137

row,Sequence,PBM E-score
1,AGCTGCAG,0.0452
2,GTTTTAGA,-0.153
3,CCTAAAGG,-0.187
4,AGCAGGTC,-0.0366
5,AGACTGCA,-0.325
6,ACGCAGAA,-0.0444
7,ACAATTGA,-0.21
8,GTTTAAGA,0.0523
9,ACCGCAGC,0.0746
10,AGTTTGAA,0.0583
11,CTCTCAGC,-0.266
12,CCCGCTCG,0.198
13,AGATTAAC,-0.133
14,ATACCAGG,-0.15
15,CCACGGGC,0.176
16,ATAGTACG,0.0782
17,CAATGATC,-0.236
18,ATTGGACA,-0.0149
19,AAGCCAAG,-0.15
